In the supplement of paper PMC11417369:
This is one part of the list.

Each sequence was assayed on PfAP2-HC AP2 domain (GST-tagged) (assay: gcPBM binding intensity (ln(normalized median fluorescence intensity)); higher = stronger DNA binding).
How it was run: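 Binding intensity is defined as the maximum Masliner-normalised natural-log median intensity across replicate spots for either probe orientation. It was measured on an Agilent 4 × 180k array of primer-extended double-stranded 36-bp intergenic genomic probes and negative controls, to which GST-tagged P. falciparum DNA-binding domains made in E. coli were applied for 1 h in 1× PBS with 1% milk, 0.2 mg/ml BSA, 0.5% salmon testes DNA and 0.03% Triton X-100. Detection was by Alexa488 anti-GST antibody and scanning at 488 nm.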

| Sequence | gcPBM binding intensity (ln) |
| --- | --- |
| GATTCTTCACCGTACTCACACATATATATATATATA [CACACA_site5665] | 9.84 |
| TCTTTTTTTTTTAAACGTACATTGCATTATCACGTA [XGTACX_site6873] | 9.6 |
| ATCCATTATTTTTGTTGTACGGGTAACTTTAAAAAG [XGTACX_site2226] | 9.5 |
| TATCTCATAGTATACACACACACACCCACCCATATA [CACACA_site1739] | 10.7 |
| CACACGCACGAACACACACACACACGCATATAAATA [CACACA_site6302] | 10.9 |
| AATATATATATATTCACACATAAAAAAGTAAAAAAA [CACACA_site5040] | 9.83 |
| GACCATATGAATAATGCACACGTTTTAAAATATTAA [CACACA_site5312] | 9.7 |
| TATTTATTATTAAGATGTACATAAAACACTGAATAA [XGTACX_site4246] | 9.69 |
| TGAAAAAGGAAAAAAAAAAAAAAAAAAAAAACGAAA [GTGCAC_negctrl_site555] | 9.38 |
| ATTAAGACACATTGCACACGTGCACCCATAGAAAAA [CACACA_site408] | 9.76 |
| TATATATATATAATAGTGCATAAATAAATATATAAA | 9.79 |
| TTTTAATTAAGACACACACACACATATAAATATGTA [CACACA_site7144] | 11 |
| TATCATTTCATATCAAGTACAAACATTTTACATATA [XGTACX_site5307] | 9.52 |
| ATAATAATATATATTGTACACACAAAATGGGAAAAA [CACACA_site8568] | 10.2 |
| ATATGTATTTATATATGTTTGATTTTTTTTTTTTTT [TGCATGCA_negctrl_site506] | 9.53 |
| AGGAAAAAAGAAAAAACACACATAAATATATATATA [CACACA_site3085] | 9.74 |
| CATACAGACATACATACACACATACCTATAAATATA [CACACA_site6995] | 10.3 |
| AAATGAAATAAAATCATATATTTATAATTATTATAA [TGCATGCA_negctrl_site612] | 9.56 |
| AAAGAGAACAGAAGTACACACATGTTCTTTTAGTAA [CACACA_site5557] | 9.85 |

| Sequence | gcPBM binding intensity (ln) |
| --- | --- |
| ATATTCTGCTGTTTAGTGCAATTATGAAATTATGAT | 9.55 |
| TAAAAAATAAAAATTGCACACTAAAAAATTACCCAC [CACACA_site5823] | 10.2 |
| TTGATTTTTATTTTTAAAATAAATAAATTTCAAATG [TGCATGCA_negctrl_site199] | 9.16 |
| TTTTTTTTTCTTTGGTGTACAATGTAATAGAAAATA [XGTACX_site227] | 9.34 |
| AAAAAAAACAAACACACACACAAATATTTATATATT [CACACA_site436] | 10.5 |
| TAAAAAGAAATGTAAAGTACAAATTTGAATAACATG [XGTACX_site7981] | 9.87 |
| AAAAAATTATATAAATGTACATTTTGGCTAGACATG [XGTACX_site5977] | 9.71 |
| TTTTTTTTTGAATATTGTACATATATATTACTTTTA [XGTACX_site5520] | 9.71 |
| CATATATATAATTATTCACACAATAGTTAAAAGTAT [CACACA_site5302] | 9.71 |
| TAGCTCGTTCGGAGCACACACATATATATATATATA [CACACA_site1948] | 9.71 |
| TACATAAATTAAAACACACACACACTAATAAAAAAA [CACACA_site8712] | 11.3 |
| ATATGTATGTATGTATGTACTTATTTATTTATTAAT [XGTACX_site8018] | 9.75 |
| GTTTTATTTTGTTTCTATTTGACACATGTGATTATT [CACACA_negctrl_site1246] | 10.1 |
| ATTCAATATATATACACACACACTTTTAATAATTAA [CACACA_site3770] | 10.8 |
| TGTTAAAATAAAATCTATTACATTTTTATGGTTATA [XGTACX_negctrl_site525] | 9.31 |
| TCTTGTAAATATATGTGTATATTATATTTTATTATA [TGCATGCA_negctrl_site117] | 9.67 |
| CTTAATATTCTTTAAAGTACACAAAATAAGAATATA [XGTACX_site5489] | 9.28 |
| TGCAAGGAAAAACACACACACACATAAATGTATATA [CACACA_site751] | 10.4 |
| ATTTCATATACAAATTGTACATACAATTTTATGTTT [XGTACX_site3240] | 9.81 |

| Sequence | gcPBM binding intensity (ln) |
| --- | --- |
| TTAAAAATAATATTATGTACTAAGAATAAATATATA [XGTACX_site3100] | 9.56 |
| CTAGTAAAAAATGCAAGTACATACATTATAAGTATA [XGTACX_site3908] | 9.7 |
| ATATTGGAGCACAACACACACAAGTATAAATATGGA [CACACA_site6834] | 10.2 |
| AAAAAACACGCACATACACACAAAAATGTTATAAAT [CACACA_site6188] | 10.2 |
| TTATATTTTTTAATTACACACAATTTTTATAAATAT [CACACA_site4148] | 9.65 |
| ATCTCATAAAACCGCACACACATAAAATTTGCATTA [CACACA_site3891] | 10.1 |
| TATAAATATTATAATTGTACATATTATAAAAATTTT [XGTACX_site2719] | 9.52 |
| TTTAAAATTTAATTTTGTACATATACCAATTTTATT [XGTACX_site448] | 9.65 |
| AATTAGCATAAATGGGTGCTACACAAAAATGCATGT [GTGCAC_site9640] | 9.74 |
| ATATAAATATGAAAAAGTACAAGCCATCAAGAAATC [XGTACX_site8140] | 9.97 |
| AATTTTTTATTCTTTGCATGTCATCATATATAATAT [TGCATGCA_site549] | 9.81 |
| ATATAATGTTAGGGTAGAGGAAGTAACTAATATAAA [CACACA_negctrl_site1153] | 9.73 |
| ATATAATATATGTTATGTACATAGTTTTTATTGTTC [XGTACX_site7438] | 9.77 |
| AATATATAATCAGATGAATTTTTTTTTTTTTTTTCA [CACACA_negctrl_site534] | 9.21 |
| AAATATATAAAAGTATGTACATATGAAAAATATATA [XGTACX_site6165] | 9.98 |
| TTATATAACATAACGATGTTTCAAAACATATTGTAT [CACACA_negctrl_site997] | 9.59 |
| TTATAAAGAATTAGGAGTACAAATGCATATATAATA [XGTACX_site6580] | 9.73 |
| AGCAACTAAAAAGGATACCCCATTAAAAAAAAATTA [XGTACX_negctrl_site489] | 9.4 |
